Measurements published in the supplement of paper PMC11417369.
± gives the standard deviation of the averaged measurements. The list shows a part of the results.

The sequences below were run on PfAP2-I AP2 domain 3 (GST-tagged) (assay: gcPBM binding intensity (ln(normalized median fluorescence intensity)); higher = stronger DNA binding).
In short: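 In this array assay, P. falciparum DNA-binding domains with a GST tag, expressed in E. coli, were applied for 1 h to primer-extended double-stranded 36-bp intergenic genomic probes and negative controls on an Agilent 4 × 180k array. Bound protein was visualised with Alexa488 anti-GST antibody at 488 nm. Binding intensity is the highest Masliner-normalised natural-log median intensity across replicate spots of either probe orientation.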
For “ACGTGTATTTATTTAGTGCACTTTATATTTTTTCTT [GTGCAC_site9426]”, the “gcPBM binding intensity (ln)” value was 11.5 ± 0.28.
With “ATCCTAATATTGAACTGTACCTTATATGTTATTATA [XGTACX_site1014]” the “gcPBM binding intensity (ln)” value was 7.93 ± 0.69.
In the case of “GGTTATATATTTTTTGCACACCAAAAAAGAGAATAT [CACACA_site2731]”, the “gcPBM binding intensity (ln)” value is reported as 9.56 ± 0.14.
In the case of “TATATATATATATATACACACATATATACATATATA [CACACA_site4043]”, the “gcPBM binding intensity (ln)” value is reported as 9.19 ± 0.59.
With “TTATAAATAAAAAATACACACATATATTTATTTATA [CACACA_site6242]” the “gcPBM binding intensity (ln)” value was 7.33 ± 0.47.
In the case of “ATAATATATGAAAGTGGTACACAAAGGAAAATAAAA [XGTACX_site333]”, the “gcPBM binding intensity (ln)” value is reported as 8.56 ± 0.85.
With “AATAATAAATCAAACTGTACATATATTTTCAATCTA [XGTACX_site3344]” the “gcPBM binding intensity (ln)” value was 7.55 ± 0.57.
In the case of “TGTAGTCTGGAGAAAAGTACACAGTATCCGGTAACT [XGTACX_site4934]”, the “gcPBM binding intensity (ln)” value is reported as 7.71 ± 0.73.
With “TTTTTTTTTTTGTTCACACATATATATATATATATA [CACACA_site5376]” the “gcPBM binding intensity (ln)” value was 9.44 ± 0.38.
For “TTAACTATGAATACATGTACATGAAAATATTTCAAT [XGTACX_site1069]”, the “gcPBM binding intensity (ln)” value was 7.79 ± 0.28.
With “AAAATTAAACAAAGTTGTACAAAATAATAATAAAAG [XGTACX_site7515]” the “gcPBM binding intensity (ln)” value was 8.02 ± 0.54.
For “AAATTAATAAAAAATGGTACACAAAATGGATGTATA [XGTACX_site1561]”, the “gcPBM binding intensity (ln)” value was 7.9 ± 0.44.
With “GGCAAATTTATTATACCCACATACATACATACATAC [XGTACX_negctrl_site186]” the “gcPBM binding intensity (ln)” value was 8.91 ± 0.41.
With “TTTATATTAATTGATGTGCACTGAAATATTTGTCCA [GTGCAC_site9655]” the “gcPBM binding intensity (ln)” value was 10.3 ± 0.28.
With “ACCCTATAGGTAACTACACACCGCATATTGTTTACT [CACACA_site7436]” the “gcPBM binding intensity (ln)” value was 7.88 ± 0.73.
With “AAAATAAAATAAAACACAAAAAAATAAAACAAAATA [CACACA_negctrl_site16]” the “gcPBM binding intensity (ln)” value was 7.66 ± 0.49.
With “TATATATCCATGTGTACACACAAAAAAAAATAAAGT [CACACA_site7107]” the “gcPBM binding intensity (ln)” value was 8.61 ± 0.47.
In the case of “AAATATGTTTATATATGTACTTATAATTCAAAATAT [XGTACX_site2167]”, the “gcPBM binding intensity (ln)” value is reported as 7.64 ± 0.3.
“TCTATGCGTTTTAATAGTACATATAAAATTTATACA [XGTACX_site6986]” was tested, and the “gcPBM binding intensity (ln)” value was 7.92 ± 0.28.
With “AAATAAAATATATACATATATATATTATTTAGTAAT [XGTACX_negctrl_site375]” the “gcPBM binding intensity (ln)” value was 7.31 ± 0.4.
In the case of “CCATGTCACAATTTTTCACACACAAAATTTATATAC [CACACA_site8628]”, the “gcPBM binding intensity (ln)” value is reported as 8.18 ± 0.55.
In the case of “TAATTAACAAACTATAGTACACAAAATACTTCATAT [XGTACX_site6375]”, the “gcPBM binding intensity (ln)” value is reported as 7.88 ± 0.39.
With “ATATACACACATAAGTGTACTTATATTTCATATATA [XGTACX_site8646]” the “gcPBM binding intensity (ln)” value was 7.99 ± 0.57.
TTATTTTTGTGTAAGGTGCTATATATAATGTTTTTA was tested, and the “gcPBM binding intensity (ln)” value was 10.1 ± 0.67.
With “AAAAAGGATAAACACACACACACACCGATATATATA [CACACA_site8206]” the “gcPBM binding intensity (ln)” value was 8.14 ± 0.87.
“AACGAAATCATCAAGTGTACTAGTTTATTATTAATA [XGTACX_site6161]” was tested, and the “gcPBM binding intensity (ln)” value was 7.7 ± 0.42.
For “AAATGTGATATAAGTACACACACATATGTATATATA [CACACA_site8539]”, the “gcPBM binding intensity (ln)” value was 7.84 ± 0.44.
With “TATGTATATTATATGACACACATTTATATATATATA [CACACA_site1167]” the “gcPBM binding intensity (ln)” value was 9.01 ± 0.52.
“AATAAATAAATAAATATATATATATATATATATATG [CACACA_negctrl_site899]” was tested, and the “gcPBM binding intensity (ln)” value was 8.41 ± 0.5.
“TTTTGTTGATTTATATCTGTAGGGTTTAATATAACA [XGTACX_negctrl_site174]” was tested, and the “gcPBM binding intensity (ln)” value was 7.5 ± 0.34.
For “TATTTTATCTATTTGTGTACTTATATTTATGCAAAA [XGTACX_site1499]”, the “gcPBM binding intensity (ln)” value was 8.21 ± 0.34.
“TATATATATAATATTGCACACAAAATTAAAAGTAAA [CACACA_site7889]” was tested, and the “gcPBM binding intensity (ln)” value was 10.02 ± 0.071.
In the case of “ATAAATAATATATATACACACATATCTATACATATT [CACACA_site487]”, the “gcPBM binding intensity (ln)” value is reported as 7.73 ± 0.4.
For “AAATTATTAAAAAAAAGTACATATATATATATATAT [XGTACX_site8313]”, the “gcPBM binding intensity (ln)” value was 9.41 ± 0.64.
In the case of “ATAATACACGATTATTTTCCCTTTATGTAAATATAT [CACACA_negctrl_site1107]”, the “gcPBM binding intensity (ln)” value is reported as 7.85 ± 0.51.
“ATCATCTATGTTATTACACACGTTATGTTATTATAA [CACACA_site5502]” was tested, and the “gcPBM binding intensity (ln)” value was 7.93 ± 0.57.
“TTTTTTTTTTTTTTATGTACGAAAGAAAAGCACATA [XGTACX_site8261]” was tested, and the “gcPBM binding intensity (ln)” value was 8.485 ± 0.078.
In the case of “TTTAGATAATTCATTACACACATGTATATTTATATA [CACACA_site7602]”, the “gcPBM binding intensity (ln)” value is reported as 7.6 ± 0.51.
For “TAACGAATTTAAATTTGTACATATATAAATATATAA [XGTACX_site2168]”, the “gcPBM binding intensity (ln)” value was 7.55 ± 0.33.
With “ACTAAACTTTTATGTACACACATATAACATTAATTT [CACACA_site5276]” the “gcPBM binding intensity (ln)” value was 8.18 ± 0.29.
“TACGTAAAAATAGGACGTACTTATTTAGAAACCATA [XGTACX_site2498]” was tested, and the “gcPBM binding intensity (ln)” value was 7.78 ± 0.23.
With “TACAAAATGGGGAACACACACATATATATATATATA [CACACA_site3844]” the “gcPBM binding intensity (ln)” value was 9.3 ± 0.39.
“TTGGTACCTATAGATACACACATATATACCTATATA [CACACA_site5812]” was tested, and the “gcPBM binding intensity (ln)” value was 7.58 ± 0.41.
“AAATATTATAGCACCACACACTTATTTTATTTATAT [CACACA_site7133]” was tested, and the “gcPBM binding intensity (ln)” value was 10.8 ± 0.55.
For “AGAAAGAAAGAATACACACACACATATATAAATATC [CACACA_site7716]”, the “gcPBM binding intensity (ln)” value was 7.91 ± 0.7.
With ATTATCAATATGAAGGTGCATTTAAATAATATTTAC the “gcPBM binding intensity (ln)” value was 11.3 ± 0.7.
“TATATTCTTTATAGGTGTACTTAATAAATAAAAAAT [XGTACX_site5378]” was tested, and the “gcPBM binding intensity (ln)” value was 8.11 ± 0.23.
“TATCTAGTTACTCCTTGTACATAATAAATGATTTTT [XGTACX_site5674]” was tested, and the “gcPBM binding intensity (ln)” value was 7.78 ± 0.54.
With “TATATATATGTGTTTACACACAATAATGAATTAAAA [CACACA_site4659]” the “gcPBM binding intensity (ln)” value was 7.92 ± 0.57.
“TATGAACATAAATTTGCACACTGGATATAATATATA [CACACA_site2155]” was tested, and the “gcPBM binding intensity (ln)” value was 9 ± 0.11.
With “ATATATATATTTTTATGAGGCATAAGTAATATTTTT [TGCATGCA_negctrl_site317]” the “gcPBM binding intensity (ln)” value was 8.74 ± 0.11.
In the case of “AACAAGAAAAAAAAAAAAAAAAAAAAAAAATATTTT [XGTACX_negctrl_site428]”, the “gcPBM binding intensity (ln)” value is reported as 7.32 ± 0.57.
“TTTTTATTTTTTTAGTATACGTACTAGGTTTGTTCT [XGTACX_site645]” was tested, and the “gcPBM binding intensity (ln)” value was 7.84 ± 0.42.
With “ATATATTTATATATATGTACTTAAAACATTTCGATG [XGTACX_site328]” the “gcPBM binding intensity (ln)” value was 7.62 ± 0.22.
In the case of “AATGTAATATAAATATGTACATAATATATATAATTA [XGTACX_site4762]”, the “gcPBM binding intensity (ln)” value is reported as 7.64 ± 0.41.
With “ATTTGTTTATAGGCCATAAAATATTTAATTCATTTG [CACACA_negctrl_site1824]” the “gcPBM binding intensity (ln)” value was 7.64 ± 0.58.
“TTTTTCATAAATATATGTACATATATTTTATATAAC [XGTACX_site3402]” was tested, and the “gcPBM binding intensity (ln)” value was 7.99 ± 0.51.
